In all, about 52,000 compounds went through this assay and about 1,700 (3.3%) were called active. Cut-off read from the data, not from the text of the source: active = survival mostly below about 52% (no sharp cut-off); inactive = mostly above about 56%. The list shows a part of the results.

In this assay the test system is Wild type. Briefly: growth inhibition of S. aureus wild type versus tarO mutant, primary screen, teichoic acid synthesis inhibitors, RN4220, OD600 (AID 463173). The following applies: S. aureus RN4220 wild type/DeltatarO growth, OD600, 18 h, hits give low values, screened at 18.75 µg/mL (by protocol).
On to `COc1cc(OC)c(C(=O)NCc2nc(-c3ccccc3)no2)cc1OC`, for which the survival is inactive: 81%.

Turning to `O=C(Nc1cc(Cl)cc(Cl)c1)c1ccc(F)c(S(=O)(=O)N2CCCC2)c1`, the survival was inactive: 71%.

For `CCCC(=O)Oc1c(Sc2ccc(C)cc2)c(C)nn1-c1ccccc1`, the survival was inactive: 72%. As for `CCc1ccc(CN(Cc2ccco2)c2cnc(S(C)(=O)=O)nc2C(=O)Nc2ccc(C)c(Cl)c2)cc1`, the survival was inactive: 86%. Regarding `CC(=O)Nc1ccc(S(=O)(=O)N2CCC(N3CCN(Cc4ccc(C)cc4)C(=O)C3=O)CC2)cc1`, the survival was inactive: 92%.

As for `CC1Cc2cc(S(=O)(=O)CCC(=O)Nc3cccc(F)c3)ccc2N1C(=O)C1CC1` (centres undefined), the survival is inactive: 70%.

Turning to `O=C(Cn1nnc(-c2ccc(C(F)(F)F)cc2)n1)NCCc1ccccc1`, the survival was inactive: 90%. As for `Cc1cc(C)cc(NS(=O)(=O)c2cc3[nH]c(=O)c(=O)[nH]c3cc2C)c1`, the survival was inactive: 72%. Then `O=C(Cn1ncn2c(cc3cc(F)ccc32)c1=O)NC1CCCCC1`, with inactive: 81%. With `COC(=O)c1ccccc1NC(=O)c1cc2ccccn2n1` the figure was inactive: 72%; with `O=C(O)C1C2C3C=CC(C3)C12` (centres undefined), inactive: 109%. For the compound `Cc1ccc(NC(=O)CN(C)S(=O)(=O)c2cccc3cccnc23)c(C)c1`, the survival is inactive: 75%. With `Cc1cccc(OCCn2c(SCC(N)=O)nc3ccccc32)c1`, the survival is inactive: 126%. On to `CCc1noc(-c2ccc(N3CCC(C)CC3)c([N+](=O)[O-])c2)n1`, for which the survival was inactive: 93%.

For the compound `Cc1nn2c(=O)cc(COC(=O)c3ccc(NC(=O)CCc4ccccc4)cc3)nc2s1`, the survival was inactive: 74%.

On to `CCC(Sc1nc2cc3c(cc2c(=O)n1CCCCCC(=O)NCc1ccc2c(c1)OCO2)OCO3)C(=O)NCCCOC` (centres undefined), for which the survival is inactive: 59%. As for `COc1ccc(CCNC(=O)C(=O)NCC(c2ccco2)S(=O)(=O)c2cccs2)cc1` (centres undefined), the survival is inactive: 124%. `Cc1c(Cl)cccc1NC(=O)c1cc(-c2cccc(Cl)c2)on1`: the survival is inactive: 90%. `CC(C)C(=O)Nc1ccccc1C(=O)OCc1cc(=O)n2nc(C3CC3)sc2n1`: the survival was inactive: 100%. Regarding `COc1cc2c(C(=O)N3CCN(c4cccc(Cl)c4)CC3)cn(C)c(=O)c2cc1OC`, the survival is inactive: 64%.

For the compound `O=C(CN1C(=O)c2cccnc2Oc2ccc(Cl)cc21)NCCCN1CCCCC1`, the survival is inactive: 68%. As to `O=C(Nc1cccc(Br)c1)Nc1nc2c(s1)CCCCCC2`, the survival was inactive: 73%. In the case of `COc1ccc(NC(=O)c2cnc(N3CCOCC3)c3ccccc23)cc1OC`, the survival was inactive: 102%. `Cc1cccc(-c2nc3cc(NC(=O)c4ccc(OCC(C)C)cc4)ccc3o2)c1`: the survival is inactive: 117%. On to `CCOC(=O)N1CCC(NC(=O)c2cnn(-c3ccc(C)cc3)c2-n2cccc2)CC1`, for which the survival is inactive: 69%. Regarding `O=C(Nc1ccc2nc(SCCOc3ccccc3)sc2c1)c1ccco1`, the survival is inactive: 115%. For `Cc1cccn2c(=O)c3cc(C(=O)NC(C)C)n(C)c3nc12`, the survival is inactive: 82%.

On to `COc1cccc(CCNC(=O)c2ccc(Cn3c(SCc4ccccc4)nc4cccnc43)cc2)c1`, for which the survival is inactive: 87%. Turning to `CCOc1ccc(NC(=O)NC(C)c2c(-n3cccc3)sc3c2CCN(CC)C3)cc1` (centres undefined), the survival was inactive: 80%. `CCOc1ccc(NC(=O)Cn2cc(C(=O)c3ccc(F)cc3)c(=O)c3cc4c(cc32)OCO4)cc1`: the survival was inactive: 78%. Consider `CCOc1ccc2[nH]c(=S)c(C#N)cc2c1`, for which the survival was inactive: 110%. With `COc1ccc(-c2nc3ccccc3n2Cc2ccc(C(C)C)cc2)cc1`, the survival was active: -8%.

Take `N#C/C(=C\c1ccco1)C(=O)Nn1cnnc1`: the survival is inactive: 101%.

In the case of `Cc1ccccc1NC(=O)C1CCN(C(=O)c2ccc(F)cc2)CC1`, the survival is inactive: 82%. Turning to `COc1cccc(C(=O)NCC(C)C)c1`, the survival was inactive: 109%. Then `Cc1ccc(C)c(Nc2nn3c(=O)c4ccc(C(=O)NCCC5=CCCCC5)cc4nc3s2)c1`, with inactive: 97%. In the case of `Cc1ccc(N2CC(C(=O)NCCS(=O)(=O)N3CCN(c4ccccc4)CC3)CC2=O)cc1C` (centres undefined), the survival was inactive: 72%. For the compound `CC(C)c1ccc(-c2noc(SCC(=O)N3CCN(c4ccc(F)cc4)CC3)n2)cc1`, the survival was inactive: 73%. Consider `CCOc1ccc(OCc2ccc(C(=O)Nc3cc(OC)c(OC)c(OC)c3)o2)cc1`, for which the survival is inactive: 74%.

For the compound `Cc1ccc(C)c(NC(=O)N(C)CCc2c(C)nn(C)c2C)c1`, the survival was inactive: 56%. Then `O=C(CCc1ccccc1)N(Cc1cccnc1)c1nc2c(F)cc(F)cc2s1`, with inactive: 131%; and `COc1ccc(CCNS(=O)(=O)c2cc(-c3cc(C)no3)ccc2OC)cc1OC`, with inactive: 75%; and `Cc1ccc(C(=O)Nc2nc3nc(C)cc(=O)n3[nH]2)cc1`, with inactive: 89%. `CCN(CC)CCNc1ncnc2c1cnn2-c1cc(Cl)ccc1C`: the survival is inactive: 98%. Then `CCNc1nc(N)nc(Oc2ccc(OCC(=O)OC)nn2)n1`, with inactive: 106%; and `CCOc1ccc(-c2nc(CNC(=O)NC3CCCCC3)c(C)o2)cc1`, with inactive: 138%; and `CCOc1ccccc1C(=O)Nc1cccc2ccc(C)nc12`, with inactive: 49%. Regarding `COc1cccc(CNC(=O)CSc2nc(=O)[nH]c3c2CCC3)c1`, the survival was inactive: 77%. As for `CCCN(C(=O)C(=O)Nc1ccc2nc3n(c(=O)c2c1)CCCCC3)c1ccc(OCC)cc1`, the survival was inactive: 76%. Take `COc1ccc(CCNc2nc3ccc(Cl)cc3n3cnnc23)cc1OC`: the survival is inactive: 85%. With `Cc1cccc2nc(-c3ccc(N(C)C)cc3)c(Nc3ccc4c(c3)OCO4)n12`, the survival was inactive: 90%. In the case of `O=C(NCCc1csc(-c2ccc(Cl)cc2)n1)c1ccco1`, the survival was inactive: 70%. `CC(SC(=S)N1CCCCCC1)C(=O)O` (centres undefined): the survival is inactive: 108%. Then `O=C1c2ccccc2C(=O)N1CC(O)CN1CCOCC1` (centres undefined), with inactive: 108%; and `COC(=O)c1c(NC(=O)Cc2cccs2)sc2c1CCCC2`, with inactive: 113%; and `COc1ccccc1-c1nnc(C2CCN(C(=O)c3cccc(Cl)c3)CC2)o1`, with inactive: 82%.

Regarding `CCOC(=O)c1ccccc1NC(=O)Cn1c(=O)n(CCC(=O)N2CCc3ccccc3C2)c(=O)c2ccccc21`, the survival is inactive: 88%. `Cc1cccc(C(c2sc3nc(-c4ccco4)nn3c2O)N2CCN(Cc3ccccc3)CC2)c1` (centres undefined): the survival was inactive: 128%. Turning to `COc1cc(NC(=O)c2cc(Cl)ccc2Cl)ccc1NC(=O)c1cc2ccccc2o1`, the survival was inactive: 80%.

These data come from PubChem BioAssay AID463173 (ICCB-Longwood Screening Facility, Harvard Medical School, 2010).
